This passage reports fractional viability results from the supplement of paper PMC5919970.

Where “and” joins values, the source holds several entries; their conditions need not be identical. Equal values may be shown once. Where a name gives a salt, the structure may show the parent alone. Whole data set: some 2,000 compounds, median “fractional viability relative to vehicle” near 0.91, cut for the lowest 2% near 0.045. Some of the results follow.

The experiment deals with TYKNU. As to the kind of experiment: fractional viability relative to vehicle; TYKNU is a high-grade serous ovarian cancer line; higher = less growth inhibition. Particulars: 72 h. The method in brief: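 TYKNU control cells or lentiCRISPRv2 knockout derivatives were seeded at 500 cells per well into drug-stamped 384-well plates holding a ~2100-compound library at 2 or 10 μM, in duplicate. Cells were grown at 37 °C in 5% CO2 in RPMI 1640 with 10% FBS, and drug treatment lasted 72 h. Viability was read by Cell Titer Glo luminescence. Duplicate treatment wells were averaged and normalised to duplicate control wells from the same plate position.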

Setting [1] is: 2uM, genotype: DNM1L knockout (sgDNM1L #1).
Where [2] appears, read: 2uM, genotype: sgCTRLA1 (non-targeting control).
The mark [3] stands for this setting: 10uM, genotype: DNM1L knockout (sgDNM1L #1).
Where [4] appears, read: 10uM, genotype: sgCTRLA1 (non-targeting control).

In the case of `O=C(O)c1cccnc1` [Nicotinic Acid], the fractional viability turned out to be 0.906 under setting [1], 1.11 under setting [2], 0.981 under setting [3] and 1.05 under setting [4].
As for `Cc1cccc(N(C)C(=S)Oc2ccc3ccccc3c2)c1` [Tolnaftate], the fractional viability runs as follows: under setting [1], 0.993; under setting [2], 1.16; under setting [3], 0.875; under setting [4], 1.07.
For `C=CCNC1=C2C[C@@H](C)C[C@H](OC)[C@H](O)[C@@H](C)/C=C(\C)[C@H](OC(N)=O)[C@@H](OC)/C=C\C=C(/C)C(=O)NC(=CC1=O)C2=O` [17-AAG (Tanespimycin)], in that order: 0.316, 0.226, 0.298 and 0.217.
For the molecule `CN1CCN(c2ccc3nc(-c4c(N)c5c(F)cccc5[nH]c4=O)[nH]c3c2)CC1` [Dovitinib (TKI-258, CHIR-258)], the fractional viability runs as follows: under setting [1], 0.523; under setting [2], 0.465; under setting [3], 0.119; under setting [4], 0.0963.
As to `CN1CCN(c2ccc3nc(-c4c(N)c5c(F)cccc5[nH]c4=O)[nH]c3c2)CC1` [Dovitinib (TKI258) Lactate], the fractional viability is, setting by setting: under setting [1], 0.398; under setting [2], 0.423; under setting [3], 0.0366; under setting [4], 0.0252.
For the molecule `O=c1[nH]c(=O)n([C@H]2C[C@H](O)[C@@H](CO)O2)cc1I` [Idoxuridine], the fractional viability was found to be 0.843 under setting [1], 1.07 under setting [2], 0.836 under setting [3] and 0.886 under setting [4].
Turning to `COc1ccc(-c2ccc3cc(C(=O)O)ccc3c2)cc1C12CC3CC(CC(C3)C1)C2` [Adapalene], the fractional viability by setting is: under setting [1], 0.709; under setting [2], 1.02; under setting [3], 0.367; under setting [4], 0.414.
In the case of `COc1cc2c(NC3CCN(CC4CCCCC4)CC3)nc(N3CCCN(C(C)C)CC3)nc2cc1OCCCN1CCCCC1`, the fractional viability runs as follows: under setting [1], 0.657; under setting [2], 0.723; under setting [3], 0.0227; under setting [4], 0.00884.
On to `NNC(=O)c1ccncc1` [Isoniazid], for which the fractional viability under setting [1] is 0.893, the fractional viability under setting [2] worked out at 1.14, the fractional viability under setting [3] came out at 0.875 and the fractional viability under setting [4] was determined as 1.06.
As for `CC1(C)C=C(CN2C/C(=C\c3ccc(F)cc3)C(=O)/C(=C/c3ccc(F)cc3)C2)C(C)(C)N1O`, the fractional viability runs as follows: under setting [1], 0.773; under setting [2], 0.973; under setting [3], 0.847; under setting [4], 0.755.
As for `Cc1ccc(S(=O)(=O)OCC(=O)Nc2ccc(C(=O)O)c(O)c2)cc1`, the fractional viability is, setting by setting: under setting [1], 0.988; under setting [2], 1.1; under setting [3], 0.977; under setting [4], 1.16.
Turning to `C[C@H]1C[C@H]2[C@@H]3CCC4=CC(=O)C=C[C@]4(C)[C@H]3C(=O)C[C@]2(C)[C@@]1(O)C(=O)CO` [Meprednisone], the fractional viability amounted to 1.04 under setting [1], 1.07 under setting [2], 1.12 under setting [3] and 1.09 under setting [4].
Taken in the same sequence, the figures for `O=C(O)CCCN1CCC(O[C@@H](c2ccc(Cl)cc2)c2ccccn2)CC1` [Bepotastine Besilate] were 1.03, 1.1, 0.893 and 1.
As for `O=C(NC(Cc1cc(=O)[nH]c2ccccc12)C(=O)O)c1ccc(Cl)cc1` (stereo unspecified) [Rebamipide], the fractional viability came out at 1.07 under setting [1], 1.02 under setting [2], 0.978 under setting [3] and 0.847 under setting [4].
Take `COc1ccc2[nH]cc(/C=C3\C(=O)Nc4ccc(NC(=O)CCN5CCCCC5)cc43)c2c1`: the fractional viability was 0.761 under setting [1], 0.929 under setting [2], 0.809 under setting [3] and 0.795 under setting [4].
On to `COC(=O)/C=C/C(=O)OC` [Dimethyl Fumarate], for which the fractional viability was 0.886 under setting [1], 1.07 under setting [2], 0.762 under setting [3] and 1.12 under setting [4].
`CC(C)c1cc(C(C)C)c(CC(=O)NS(=O)(=O)Oc2c(C(C)C)cccc2C(C)C)c(C(C)C)c1` [Avasimibe]: the fractional viability is, setting by setting: under setting [1], 0.829; under setting [2], 1.14; under setting [3], 0.685; under setting [4], 0.95.
On to `O=C(NNc1nc2cc(F)ccc2n2cccc12)c1cnccn1`, for which the fractional viability runs as follows: under setting [1], 0.358; under setting [2], 0.282; under setting [3], 0.269; under setting [4], 0.247.
As for `CN1CCN(Cc2ccc(-c3cnc4[nH]cc(-c5ccc6[nH]ccc6c5)c4c3)cc2)CC1`, the fractional viability is 0.871 under setting [1], 0.867 under setting [2], 0.803 under setting [3] and 0.55 under setting [4].
Taken in the same sequence, the figures for `CCOC(=O)C1=C(C)NC(C)=C(C(=O)OC)C1c1cccc(Cl)c1Cl` (stereo unspecified) [Felodipine] were 0.974, 1.09, 0.62 and 0.833.
Regarding `O=C1c2c(O)ccc(O)c2C(=O)c2c(NCCNCCO)ccc(NCCNCCO)c21` [Mitoxantrone], the fractional viability runs as follows: under setting [1], 0.0816; under setting [2], 0.0813; under setting [3], 0.163; under setting [4], 0.102.
For `O=C1c2c(O)ccc(O)c2C(=O)c2c(NCCNCCO)ccc(NCCNCCO)c21` [Mitoxantrone HCl], the fractional viability is, setting by setting: under setting [1], 0.0827; under setting [2], 0.13; under setting [3], 0.12; under setting [4], 0.0844.
Take `CCOC(=O)c1ccc(NC2CCCCC2)c(N)c1` [Ferrostatin-1 (Fer-1)]: the fractional viability worked out at 0.882 under setting [1], 1.21 under setting [2], 0.89 under setting [3] and 1.15 under setting [4].
Turning to `CC1(C)CC[C@]2(NC(=O)C(C)(F)F)CC[C@]3(C)[C@H](C(=O)C=C4[C@@]5(C)C=C(C#N)C(=O)C(C)(C)[C@@H]5CC[C@]43C)[C@@H]2C1` [Omaveloxolone (RTA-408)], the fractional viability is, setting by setting: under setting [1], 0.0849; under setting [2], 0.0407; under setting [3], 0.0223; under setting [4], 0.00825.
As to `CCCCc1ncc(/C=C(\Cc2cccs2)C(=O)O)n1Cc1ccc(C(=O)O)cc1` [Eprosartan Mesylate], the fractional viability by setting is: under setting [1], 1.08; under setting [2], 1.19; under setting [3], 0.878; under setting [4], 1.08.
For `CN1CCN2c3ccccc3Cc3ccccc3C2C1` (stereo unspecified) [Mianserin HCl], the fractional viability is, setting by setting: under setting [1], 0.971; under setting [2], 1.12; under setting [3], 1.04; under setting [4], 0.982.
Taken in the same sequence, the figures for `CN1CCCN(C(=O)c2cccc(-c3ccc(/C=C4/C(=O)Nc5ccc(Cl)cc54)o3)c2)CC1` were 0.0585, 0.0575, 0.0139 and 0.00867.
As to `CCCCCCCCOc1ccccc1C(=O)Nc1ccc(C(=O)OCC[N+](C)(CC)CC)cc1` [Otilonium Bromide], the fractional viability runs as follows: under setting [1], 1.09; under setting [2], 1.11; under setting [3], 0.627; under setting [4], 0.896.
Turning to `CN(c1ncccc1CNc1nc(Nc2ccc3c(c2)CC(=O)N3)ncc1C(F)(F)F)S(C)(=O)=O`, the fractional viability is, setting by setting: under setting [1], 0.755 and 0.589 and 0.763; under setting [2], 0.978 and 0.761 and 1.01; under setting [3], 0.235 and 0.298 and 0.207; under setting [4], 0.262 and 0.214 and 0.253.
